# Results from the supplement of paper PMC11417369.
# ± gives the standard deviation of the averaged measurements. Some of the results follow.
# Tested on: PfAP2-EXP AP2 domain (GST-tagged)
# Assay: gcPBM binding intensity (ln(normalized median fluorescence intensity)); higher = stronger DNA binding
# Summary of the method: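 GST-fused DNA-binding domains of P. falciparum, expressed in E. coli, were applied at about 25 μg on average for 1 h to an Agilent 4 × 180k array of primer-extended double-stranded 36-bp intergenic genomic probes and negative controls. Binding intensity is the highest Masliner-normalised natural-log median intensity across replicate spots of either probe orientation, measured with Alexa488 anti-GST antibody and a 488 nm scan.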
row,Sequence,gcPBM binding intensity (ln)
1,ATATAAATATATTGCACACACAATTATTATTATTAT [CACACA_site7147],8.51 ± 0.092
2,AAGGATGATACAACTTGTACATATTTGCTTAATATA [XGTACX_site764],8.54 ± 0.28
3,TATAATGTTAAATAATGTACATATTTTTTTTTTTTT [XGTACX_site4721],8.29 ± 0.34
4,AAAGCTAATATTATATGTACTTATATATTTATATAT [XGTACX_site4474],8.38 ± 0.28
5,AAATAAATGAAACACACACACACAAAAAAAAAAAAC [CACACA_site2625],8.69 ± 0.53
6,ATATAAATCTACACCGCACACAAAAACAACAAATAT [CACACA_site2506],8.95 ± 0.59
7,TGAAATTCCATAAAATGTACATATTAGTTTAATTCA [XGTACX_site4031],8.23 ± 0.36
8,AATATATTTAATCATACACACATTTATGTACCTATA [CACACA_site1718],8.8 ± 0.39
9,TCGCCCTACAATTTGTTTATATATTAAATAAAATTT [CACACA_negctrl_site883],8.69 ± 0.42
10,CATCATCTTTTAAAGGTGCATAATAATATTGTTAAT,8.94 ± 0.5
11,GTCTATTATTTTTGAAGTACAAAAATTTTAGTTAAA [XGTACX_site4708],8.6 ± 0.29
12,ATGTTCTTTAAAACCACACACCCCCCAACCCCCCTC [CACACA_site2373],10.6 ± 0.13
13,GAAATAAATATAATATATATATATATATATATATGT [TGCATGCA_negctrl_site216],8.545 ± 0.021
14,AAAAATAAATATATATGTACACATATGTATACAATA [XGTACX_site4692],8.38 ± 0.23
15,GGTATACACAGACATGCATGTAATTATATATAGGGA [TGCATGCA_site83],9.6 ± 0.42
16,TTACAACATGAAAATGTGCACATATATATATATATA,10.2 ± 0.29
17,TAAATTTATAGACACACACACATATAAATAAATATA [CACACA_site6530],8.72 ± 0.47
18,TGAATTAAGATTTATTGTACATAATTTATACCATAT [XGTACX_site7034],8.47 ± 0.16
19,AATGTGCTCGCTATTACACACTCATTGGGATAAACT [CACACA_site7043],8.56 ± 0.4
20,TATATATATATATATTGTACATTTACCAAATTGTGT [XGTACX_site5791],10.1 ± 0.25
21,ATATAATATATATATTGTACATATATTTATAAGCAT [XGTACX_site3726],8.38 ± 0.19
22,TTTAATAATAATACTAGTACACATTCTTTATTATTT [XGTACX_site2671],8.72 ± 0.4
23,TTTTTTTTTTTTTGCACACTTAAATTTGGAGTGTAG [CACACA_site2345],8.34 ± 0.41

row,Sequence,gcPBM binding intensity (ln)
1,TATATAAATAAATATACACACATATATAAATATACA [CACACA_site2982],8.32 ± 0.33
2,AAAGTAAAAAATCATAGTACACATTTAAATATATAT [XGTACX_site2323],8.72 ± 0.36
3,TTTTTTAAATTATGTAGTACGATTCATTTTTTATAA [XGTACX_site1101],8.34 ± 0.33
4,GGTATATATTTATAATGTACATATTCATATATATAA [XGTACX_site3291],8.45 ± 0.39
5,TAATATATCAAATGAAGTACTCACATATACATAATA [XGTACX_site6051],8.53 ± 0.35
6,AATATCTTAGTGGATACACACATATAAATGTGGATT [CACACA_site485],8.22 ± 0.42
7,AAGATTTTCCTTGATAGTACACTTATGAAAATTTGT [XGTACX_site3047],8.53 ± 0.26
8,TTTTTTTTTTTTTTTTTTTTTTTGTCTTATTTTTTT [GTGCAC_negctrl_site338],7.84 ± 0.31
9,ATATATTACGACTTCTGTACATAATATATAAAAGAA [XGTACX_site2353],8.61 ± 0.33
10,AAAAAAAAAAAAAAATGTACATATATATAAATATAT [XGTACX_site6768],8.34 ± 0.4
11,TATTTATATGTATATACATGCACATATATATGAAAC [TGCATGCA_site1005],9.01 ± 0.42
12,TATGTAATGTTTACAACACACAAATTATAAATACAA [CACACA_site1771],8.38 ± 0.4
13,ATATATATATATATATGTACATATTTTTATTTATAC [XGTACX_site2858],10.2 ± 0.3
14,ACCTATATACTAAATGCACACTTATATATTTATATA [CACACA_site5371],8.86 ± 0.19
15,CTATTTTATATGTGCACACATATACTCAGACAAATA [CACACA_site4761],9.05 ± 0.25
16,AAATTAATACATTATTGTACTTTTCATGTGCAGAAA [XGTACX_site8284],8.42 ± 0.21
17,TAATTCGCATTTTATACACACATTCGAACCTTTTTT [CACACA_site7549],8.99 ± 0.42
18,CGGATGAATATATATGCACACATCTTTTGTAAAAAT [CACACA_site3190],8.51 ± 0.38
19,CATATTACATTAAATTGTACATATATATATATATAT [XGTACX_site3295],10 ± 0.33
20,TGTATAAATATATGCACACATATATATATTTATATA [CACACA_site3473],8.31 ± 0.27
21,GAGAAAAAAAAAAAAAAACACACGGTACATTCAAAG [CACACA_site1767],8.56 ± 0.51
22,TCAATAAATGAATATGCATGCACGCTCTTTAGAGAT [TGCATGCA_site553],9.72 ± 0.085
23,ATATTTATAAATTGCACACAAATAATAACATTCTAT [CACACA_site2357],8.43 ± 0.31

row,Sequence,gcPBM binding intensity (ln)
1,AATTGGGAAGGACATGCATGAGAAATTAATATTGCA [TGCATGCA_site424],8.87 ± 0.43
2,TATTATTATTATGGTAGTACATGTAGGTTATTAAAA [XGTACX_site5742],8.72 ± 0.35
3,TCAATTTTACTTGTTTGTACATAAAATAATAAGGTT [XGTACX_site3732],8.44 ± 0.47
4,AAGAAAAAAAAAATTACACACTGCGGACATACACAA [CACACA_site4838],8.79 ± 0.54
5,AACATACACATATACACACACACATATATACCTATA [CACACA_site6643],8.79 ± 0.45
6,ATATTTTGTTTTTGTTCTTTTTTTTTCTTTTTTTTT [CACACA_negctrl_site1342],8.69 ± 0.59
7,TATATTAAATGAAACAAACACACATAGCCTTTAAAT [CACACA_site1559],8.79 ± 0.64
8,ACTTTGCTCTACAATGCATGCTCATTTAACAAGGCA [TGCATGCA_site676],9.59 ± 0.3
9,ATATCTACTATACAACTGAGTGTAGAAAAATTAAAC [CACACA_negctrl_site1211],8.87 ± 0.34
10,ATACGAAAAAAAAAAAGTACACAAAAATATCTACAT [XGTACX_site2051],8.54 ± 0.43
11,ATTATATTAGGTAATCAGTTAAATGTTTCCTTTTTA [CACACA_negctrl_site1229],8.35 ± 0.43
12,AAAATATGGATTCATGATATTAAATTTAATTTAATG [XGTACX_negctrl_site214],8.21 ± 0.48
13,ATATAAATAATGTTGACACACACAATAATCTTATTA [CACACA_site9197],8.28 ± 0.41
14,GTTATACTCATATATACACACATATGTAAATATATA [CACACA_site5764],8.94 ± 0.58
15,TTTATATAATTTTGTGGTACTTATGTGTGTATATTA [XGTACX_site706],8.62 ± 0.51
16,TAAATTATCTTTTTATGTACTTATTTTTATTATTTT [XGTACX_site3158],8.65 ± 0.36
17,AAAAAAAAAAAAAGTACACACTTATAAAATATTATG [CACACA_site4639],8.29 ± 0.39
18,CGCGCACCCAGACACACACACACACCGATATATATA [CACACA_site8687],8.73 ± 0.45
19,TATTTTCAACATATTTGTACATATTTTATATTTTAA [XGTACX_site101],8.65 ± 0.35
20,ATTATGATTTTATAGAACTGAACATTTACATTAAAT [GTGCAC_negctrl_site192],8.32 ± 0.45
21,TGCATACTAGCCAATTGTACATAATTTTATTTTAAA [XGTACX_site513],8.53 ± 0.26
22,AAAAGGAACAGACACACACACATATATATATATATA [CACACA_site3587],10.3 ± 0.25
23,AAAATAAATCTGAATGGGGTATAATATATCTTTGTT [CACACA_negctrl_site744],8.29 ± 0.47

row,Sequence,gcPBM binding intensity (ln)
1,ATAACAAAATAAAACACACACACAAATGTACTTATA [CACACA_site8768],8.61 ± 0.38
2,ATTTATTATATATACACACATACATATATATATATA [CACACA_site2159],9.91 ± 0.42
3,AAAAAATTCTGGTACTGTACACATTTTTTTAAATTT [XGTACX_site6904],8.51 ± 0.29
4,TGCTTTTATTTCTTCACACATATGTAAAAAAAAGAA [CACACA_site5906],8.76 ± 0.42
5,ATATGAGAGAATAAAACACACAAAAAAAAAAAAAAA [CACACA_site2865],8.12 ± 0.58
6,GTAGCCTTTCTTTATAAAGGCAAACAAACAAAAAAT [CACACA_negctrl_site1491],8.65 ± 0.42
7,TAATAATCAAGTTAACGTACAAAATCATCTATAGAA [XGTACX_site5921],8.73 ± 0.44
8,TGTATGTATTTTCAATGTACATAAAAAAAAAAAAAA [XGTACX_site4397],8.32 ± 0.4
9,TATTTTTTTTGTTAGGTGCATTTACATTTATTTTTA,9.02 ± 0.32
10,TTATATAGGCAGATGGTGCATCTATTTATAAGCAAC,8.78 ± 0.15
11,AAAAATTAAAAGAAAATACACACCTGTGGGTGCTTA [CACACA_site1988],8.05 ± 0.35
12,AAAAAAAAAAGTTCTACACACACAAAAAAATATTTT [CACACA_site8725],8.57 ± 0.86
13,TATAATATAATTAAAAGTACTTAAAAAAGAATGAAA [XGTACX_site1157],8.9 ± 0.4
14,TGTTTATATAATATTCTACACACCAACAACAAACAT [CACACA_site8087],8.95 ± 0.4
15,TATTTTTATAAAAATCGTACAAGTGATCCAATTTTT [XGTACX_site4402],8.55 ± 0.37
16,TTTTTAAAACATATCACACATATATATATATATATA [CACACA_site5991],10.3 ± 0.41
17,CCGTATTCAAAAAGGAGTACACAATTATATGTTATA [XGTACX_site641],8.61 ± 0.23
18,TAAATATATTCATAAAGTACAAAGCAAAATTGTCTA [XGTACX_site7274],8.5 ± 0.41
19,GAAATAAATATATATGCATGTACTTTAATATTATTA [TGCATGCA_site904],8.57 ± 0.16
20,GTGCTTATTTATACATGTACAAATGATAAGTTTGTA [XGTACX_site169],8.86 ± 0.2
